This is one part of the list.
Experiments:
Experiment in all cases: glycan array binding signal (z-score within array); higher = stronger binding
Settings in all cases: glycan notation: IUPAC condensed, linker removed
[1] = target: GlcNAc(b1-4)GlcNAc(b1-4)GlcNAc(b1-4)GlcNAc(b1-4)GlcNAc(b1-4)GlcNAc
In short: (§1)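 Glycan array data came from 3228 arrays in the Consortium for Functional Glycomics database, and only arrays with an available protein sequence were kept. Glycan names were put into IUPAC-condensed notation, and columns mapping to the same glycan were averaged. The binding signal is a within-array Z-score, averaged across arrays of one protein sequence run at different concentrations or buffers and across linkers. A negative Z-score can be read as non-binding.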

[2] = target: GlcNAc(b1-4)[GlcNAc(b1-6)]GalNAc
In short: as §1

[3] = target: GlcNAc(b1-6)Gal(b1-4)GlcNAc
In short: as §1

GlcNAc(b1-6)GalNAc = target: GlcNAc(b1-6)GalNAc
In short: as §1

[4] = target: GlcNAc6S(b1-3)Gal(b1-4)GlcNAc
In short: as §1

Kdn(a2-3)Gal(b1-3)GalNAc = target: Kdn(a2-3)Gal(b1-3)GalNAc
In short: as §1

Kdn(a2-3)Gal(b1-3)GlcNAc = target: Kdn(a2-3)Gal(b1-3)GlcNAc
In short: as §1

Kdn(a2-3)Gal(b1-4)Glc = target: Kdn(a2-3)Gal(b1-4)Glc
In short: as §1

Kdn(a2-3)Gal(b1-4)GlcNAc = target: Kdn(a2-3)Gal(b1-4)GlcNAc
In short: as §1

[5] = target: Kdn(a2-3)Gal(b1-4)[Fuc(a1-3)]GlcNAc
In short: as §1

Kdn(a2-6)Gal(b1-4)GlcNAc = target: Kdn(a2-6)Gal(b1-4)GlcNAc
In short: as §1

[6] = target: Man(a1-2)Man(a1-2)Man(a1-3)Man
In short: as §1

[7] = target: Man(a1-2)Man(a1-2)Man(a1-6)[Man(a1-3)]Man
In short: as §1

Man(a1-2)Man(a1-3)Man = target: Man(a1-2)Man(a1-3)Man
In short: as §1

[8] = target: Man(a1-2)Man(a1-3)[Man(a1-2)Man(a1-6)]Man
In short: as §1

[9] = target: Man(a1-2)Man(a1-3)[Man(a1-2)Man(a1-6)]Man(a1-6)[Man(a1-2)Man(a1-2)Man(a1-3)]Man
In short: as §1

[10] = target: Man(a1-2)Man(a1-3)[Man(a1-2)Man(a1-6)]Man(a1-6)[Man(a1-2)Man(a1-2)Man(a1-3)]Man(b1-4)GlcNAc(b1-4)GlcNAc
In short: as §1

[11] = target: Man(a1-2)Man(a1-3)[Man(a1-6)]Man(a1-6)[Man(a1-2)Man(a1-3)]Man(b1-4)GlcNAc(b1-4)GlcNAc
In short: as §1

[12] = target: Man(a1-2)Man(a1-6)[Man(a1-3)]Man(a1-6)[Man(a1-2)Man(a1-2)Man(a1-3)]Man
In short: as §1

[13] = target: Man(a1-2)Man(a1-6)[Man(a1-3)]Man(a1-6)[Man(a1-2)Man(a1-2)Man(a1-3)]Man(b1-4)GlcNAc(b1-4)GlcNAc
In short: as §1

Man(a1-3)[Man(a1-6)]Man = target: Man(a1-3)[Man(a1-6)]Man
In short: as §1

[14] = target: Man(a1-3)[Man(a1-6)]Man(a1-6)[Man(a1-2)Man(a1-3)]Man(b1-4)GlcNAc(b1-4)GlcNAc
In short: as §1

[15] = target: Man(a1-3)[Man(a1-6)]Man(a1-6)[Man(a1-3)]Man
In short: as §1

[16] = target: Man(a1-3)[Man(a1-6)]Man(a1-6)[Man(a1-3)]Man(b1-4)GlcNAc(b1-4)GlcNAc
In short: as §1

[17] = target: Man(a1-3)[Man(a1-6)]Man(b1-4)GlcNAc(b1-4)GlcNAc
In short: as §1

[18] = target: Man(a1-3)[Man(a1-6)]Man(b1-4)GlcNAc(b1-4)[Fuc(a1-6)]GlcNAc
In short: as §1

Man(a1-6)Man = target: Man(a1-6)Man
In short: as §1

Man(b1-4)GlcNAc = target: Man(b1-4)GlcNAc
In short: as §1

MurNAc(b1-4)GlcNAc = target: MurNAc(b1-4)GlcNAc
In short: as §1

Neu5Ac(a2-3)Gal = target: Neu5Ac(a2-3)Gal
In short: as §1

[19] = target: Neu5Ac(a2-3)Gal(b1-3)GalNAc
In short: as §1

[20] = target: Neu5Ac(a2-3)Gal(b1-3)GalNAc(b1-3)Gal(a1-4)Gal(b1-4)Glc
In short: as §1

[21] = target: Neu5Ac(a2-3)Gal(b1-3)GalNAc(b1-4)[Neu5Ac(a2-3)]Gal(b1-4)Glc
In short: as §1

[22] = target: Neu5Ac(a2-3)Gal(b1-3)GalNAc(b1-4)[Neu5Ac(a2-8)Neu5Ac(a2-3)]Gal(b1-4)Glc
In short: as §1

[23] = target: Neu5Ac(a2-3)Gal(b1-3)GalNAc6S
In short: as §1

[24] = target: Neu5Ac(a2-3)Gal(b1-3)GlcNAc
In short: as §1

[25] = target: Neu5Ac(a2-3)Gal(b1-3)GlcNAc(b1-2)Man
In short: as §1

B1: Clec18C (Homo sapiens) (protein)
chain: MLHPETSPGRGHLLAVLLALLGTAWAEVWPPQLQEQAPMAGALNRKESFLLLSLHNRLRSWVQPPAADMRRLDWSDSLAQLAQARAALCGTPTPSLASGLWRTLQVGWNMQLLPAGLVSFVEVVSLWFAEGQRYSHAAGECARNATCTHYTQLVWATSSQLGCGRHLCSAGQAAIEAFVCAYSPRGNWEVNGKTIVPYKKGAWCSLCTASVSGCFKAWDHAGGLCEVPRNPCRMSCQNHGRLNISTCHCHCPPGYTGRYCQVRCSLQCVHGRLREEECSCVCDIGYGGAQCATKVHFPFHTCDLRIDGDCFMVSSEADTYYRARMKCQRKGGVLAQIKSQKVQDILAFYLGRLETTNEVIDSDFETRNFWIGLTYKTAKDSFRWATGEHQAFTSFAFGQPDNHGFGNCVELQASAAFNWNNQRCKTRNRYICQFAQEHISRWGPGS
[1]
  glycan array binding signal (z-score): -0.601
[2]
  glycan array binding signal (z-score): -0.347
[3]
  glycan array binding signal (z-score): 1.38
GlcNAc(b1-6)GalNAc
  glycan array binding signal (z-score): 0.28
[4]
  glycan array binding signal (z-score): -0.184
Kdn(a2-3)Gal(b1-3)GalNAc
  glycan array binding signal (z-score): -0.52
Kdn(a2-3)Gal(b1-3)GlcNAc
  glycan array binding signal (z-score): -0.571
Kdn(a2-3)Gal(b1-4)Glc
  glycan array binding signal (z-score): -0.499
Kdn(a2-3)Gal(b1-4)GlcNAc
  glycan array binding signal (z-score): -0.603
[5]
  glycan array binding signal (z-score): -0.236
Kdn(a2-6)Gal(b1-4)GlcNAc
  glycan array binding signal (z-score): -0.559
[6]
  glycan array binding signal (z-score): -0.569
[7]
  glycan array binding signal (z-score): -0.632
Man(a1-2)Man(a1-3)Man
  glycan array binding signal (z-score): -0.567
[8]
  glycan array binding signal (z-score): -0.406
[9]
  glycan array binding signal (z-score): -0.536
[10]
  glycan array binding signal (z-score): -0.452
[11]
  glycan array binding signal (z-score): -0.302
[12]
  glycan array binding signal (z-score): 0.701
[13]
  glycan array binding signal (z-score): -0.504
Man(a1-3)[Man(a1-6)]Man
  glycan array binding signal (z-score): -0.507
[14]
  glycan array binding signal (z-score): 1.14
[15]
  glycan array binding signal (z-score): -0.488
[16]
  glycan array binding signal (z-score): -0.479
[17]
  glycan array binding signal (z-score): -0.483
[18]
  glycan array binding signal (z-score): -0.555
Man(a1-6)Man
  glycan array binding signal (z-score): -0.486
Man(b1-4)GlcNAc
  glycan array binding signal (z-score): -0.573
MurNAc(b1-4)GlcNAc
  glycan array binding signal (z-score): -0.578
Neu5Ac(a2-3)Gal
  glycan array binding signal (z-score): -0.559
[19]
  glycan array binding signal (z-score): -0.592
[20]
  glycan array binding signal (z-score): -0.518
[21]
  glycan array binding signal (z-score): -0.335
[22]
  glycan array binding signal (z-score): -0.565
[23]
  glycan array binding signal (z-score): -0.524
[24]
  glycan array binding signal (z-score): -0.598
[25]
  glycan array binding signal (z-score): -0.01

Source: the supplement of paper PMC8728848
